About 18,000 (5.8%) of roughly 310,000 compounds were called active. Inconclusive means that the source gave no clear call. Such entries were picked first, then a sample of the others. Calls come from the whole dose curve; as a rule, active = well fitted inhibition curve with a large enough effect; inconclusive = small, poorly fitted or top-dose-only effect, or another doubt; inactive = no such curve, though single readings can be large or run the other way. Potencies of inconclusive entries are left out as doubtful fits.
assay: Primary qHTS for delayed death inhibitors of the malarial parasite plastid, 48 hour incubation; settings: P. falciparum luciferase growth in erythrocytes; series mostly up to 28.7 µM
In short: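 Here the parasites carry a stable luciferase gene and grow inside erythrocytes in Albumax-based RPMI medium with compound for one erythrocytic cycle. Activity is scored as loss of luminescent signal.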
Potency is the fitted concentration of half-maximal effect; tags give direction and shape of the fitted curve.

| SMILES | Potency |
| --- | --- |
| Cc1ccc(NS(=O)(=O)c2cc(NC(=O)C(C)Oc3ccccc3)ccc2C)c(C)c1 (stereo not drawn) | inconclusive [inhibitor, single point] |
| CCN(CC)S(=O)(=O)c1ccc(NC(=O)CN(c2ccc(OC)cc2OC)S(C)(=O)=O)cc1 | active: 9.28 µM |
| CC(Cc1cccnc1)NC(=O)c1cc(COc2ccc(F)cc2F)on1 (stereo not drawn) | inconclusive [inhibitor, single point] |
| Cc1ccccc1NC(=O)OCc1cccnc1Oc1ccc(Cl)cc1 | inconclusive [inhibitor, single point] |
| Cc1cccc(CNc2ncnc3ccc(-c4ccoc4)cc23)c1 | active: 14.7 µM |
| Cc1c(C(=O)NN2CCCCC2)nn(-c2ccc(Cl)cc2Cl)c1-c1ccc(Cl)cc1 | inconclusive [inhibitor, single point] |
| COc1ccc(NC(=O)CN(C)C(=O)c2cc(-c3ccccc3)nc3ccccc23)cc1 | inconclusive [inhibitor, partial curve] |
| COc1cc(C(=O)NCC(=O)N/N=C(/C)c2cccs2)cc(OC)c1OC | inactive |
| CC(=O)c1sc(NC(=O)C2CC(=O)N(Cc3ccco3)C2)nc1-c1ccccc1 (stereo not drawn) | inconclusive [inhibitor, single point] |
| Nc1c(Cl)cc(C2=NCCn3c2c2ccc([N+](=O)[O-])cc2[n+]3[O-])cc1Cl | active: 13.1 µM |
| COc1ccc(CCNC(=O)c2cc3c(=O)n4cccc(C)c4nc3s2)cc1OC | inconclusive [inhibitor, full curve, poor fit] |
| CCOC(=O)[C@H]1[C@H]2COc3ccccc3[C@@H]2N2C(=O)c3cc(F)c(F)cc3NC(=O)[C@@]12C | inconclusive [inhibitor, single point] |
| CCCC1(C(=O)OCC)NC(c2ccc(N(C)C)cc2)C2C(=O)N(c3ccc(F)cc3)C(=O)C21 (stereo not drawn) | inconclusive [inhibitor, single point] |
| O=C(CN1C(=O)CCSc2ccccc21)Nc1ccc(F)cc1 | inactive |
| CCOc1cc(CNC2CCCC2)ccc1OCc1ccccc1Cl | inconclusive [inhibitor, single point] |
| COc1ccc2c(c1)c(C(O)CN1CCC3(CC1)OCCO3)c(C)n2C (stereo not drawn) | inconclusive [inhibitor, single point] |
| O=C(CSc1nc2ccccc2c(=O)n1-c1ccccc1)N1CCC1 | inconclusive [inhibitor, full curve, poor fit] |
| COC(=O)c1cc2c(C)cc3ccc(C)cn3c-2c1C(=O)OC | inactive |
| CCCN1CCc2c(sc(NC(=O)CCS(=O)(=O)c3ccccc3)c2C(N)=O)C1 | inconclusive [inhibitor, single point] |
| CCCC(=O)C1=C(O)C(C(=O)OC)C(C)(C)CC1=Nc1ccc(C)cc1 (stereo not drawn) | active: 5.22 µM |
| CCCc1nc(NCc2ccco2)c(C#N)c2c1COC(C)(C)C2 | inconclusive [inhibitor, full curve] |
| N#Cc1ccc(OCC(=O)NNC(=S)NC2CCCCC2)cc1 | inactive |
| O=C(c1cc2c(s1)-c1ccccc1OC2)N1CCC2(CC1)OCCO2 | inactive |

| SMILES | Potency |
| --- | --- |
| CC(C)=CCC/C(C)=C/Cc1c(O)ccc(C(=O)/C=C/c2ccc(O)cc2)c1O | inconclusive [inhibitor, single point] |
| Cc1ccccc1N1CCN(CC(=O)Nc2ccccc2C(=O)NC2CC2)CC1 | inconclusive [inhibitor, single point] |
| Cc1ccc(N2C(=O)NC(=O)/C(=C\c3ccsc3)C2=O)cc1C | inactive |
| COc1ccc(S(=O)(=O)N2CCCCCC2)cc1N(C)S(=O)(=O)c1ccccc1 | inconclusive [inhibitor, single point] |
| CSc1cccc(NC(=O)C2CCN(S(=O)(=O)c3ccc(F)cc3)CC2)c1 | inconclusive [inhibitor, single point] |
| CCc1ccc(Nc2n[n+](-c3ccccc3)c(/C=C/c3ccccc3)s2)cc1 | inconclusive [inhibitor, full curve] |
| COc1ccc(Cc2nnc(NC(=O)c3cc(OC)c(OC)c(OC)c3)s2)cc1OC | inactive |
| CCN1C(=O)C2(C(C(=O)c3ccc(C)o3)=C(O)C(=O)N2CCCN(C)C)c2ccccc21 (stereo not drawn) | inactive |
| CN(C)S(=O)(=O)c1ccc(N2CCCC2)c(C(=O)NCC2COc3ccccc3O2)c1 (stereo not drawn) | inconclusive [inhibitor, single point] |
| CC1CCCCN1S(=O)(=O)c1ccc(C(=O)Nc2nnc(-c3ccco3)o2)cc1 (stereo not drawn) | inconclusive [inhibitor, single point] |
| COc1ccc(-c2nc(NC(=O)c3nc4nccc(C)n4n3)sc2C)cc1 | inactive |
| O=C(Nc1ccc(N2CCCCC2)c(Cl)c1)c1ccc(N2CCOCC2)c([N+](=O)[O-])c1 | active: 5.22 µM |
| Cc1ccc(C)c(S(=O)(=O)N2CCCOC2CNC(=O)C(=O)NCc2ccco2)c1 (stereo not drawn) | inconclusive [inhibitor, partial curve, poor fit] |
| CCc1ccc(-c2cc(C(=O)N/N=C/c3ccccn3)[nH]n2)cc1 | inconclusive [inhibitor, partial curve] |
| COc1cc(C(=O)N2CCN(C(=O)C3COc4ccccc4O3)CC2)cc(OC)c1OC (stereo not drawn) | inconclusive [inhibitor, partial curve, poor fit] |
| COc1ccc(/C=N/n2c(=O)[nH]c3c([nH]c4ccc(Br)cc43)c2=O)cc1CN1CCOCC1 | inconclusive [inhibitor, partial curve] |
| Cc1ccc(F)cc1NC(=O)CSCc1c(C)noc1C | inactive |
| O=C(Cc1ccc([N+](=O)[O-])cc1)Nc1ccc(Cl)cc1 | active: 10.4 µM |
| COc1cccc(-n2cc(CNCc3c(C(=O)N(C)C)nc4ccc(Cl)cn34)cn2)c1 | active: 8.28 µM |
| CC(Cc1cccnc1)NC(=O)c1ccccc1OC1CCN(S(C)(=O)=O)CC1 (stereo not drawn) | inactive |
| Cc1cc(=O)n2nc(N3CCC(C(=O)NCc4ccccc4Cl)CC3)sc2n1 | inconclusive [inhibitor, single point] |
| COc1cc(CN(C)c2ncnc3sccc23)ccc1OC(F)F | inconclusive [inhibitor, single point] |
| CC(C)c1ccc(S(=O)(=O)N(C)C2(C)CCS(=O)(=O)C2)cc1 (stereo not drawn) | inactive |

| SMILES | Potency |
| --- | --- |
| Cc1cccc2cc(CN(Cc3cccs3)S(=O)(=O)c3ccc4c(c3)OCCO4)c(=O)[nH]c12 | inactive |
| O=C(NCc1ccco1)c1cc([N+](=O)[O-])cc([N+](=O)[O-])c1 | inactive |
| COCC1=C(C(=O)OC)C(c2ccco2)n2ncnc2N1 (stereo not drawn) | inconclusive [inhibitor, full curve, poor fit] |
| O=C(COc1ccc(Cl)cc1)Nc1nc(-c2ccc(S(=O)(=O)N3CCOCC3)cc2)cs1 | inconclusive [inhibitor, single point] |
| COc1ccc(NS(=O)(=O)c2ccc3c(c2)oc(=O)n3C)cc1Cl | inconclusive [inhibitor, partial curve, poor fit] |
| N=C1C(c2ccccc2)=C(O)CN1NC(=O)c1ccccc1 | inactive |
| COc1ccc(/C=N/Nc2nc(N3CCCC3)nc(N3CCCC3)n2)c(OC)c1OC | inconclusive [inhibitor, single point] |
| COc1ccccc1/C=C1\SC(=S)N(CCC(=O)NNC(=O)c2ccccc2O)C1=O | inactive |
| Cc1cccc(CNc2ncnc3ccc(-c4ccc5c(c4)OCCO5)cc23)c1 | active: 4.65 µM |
| O=C(Nc1cccnc1)c1cccc(S(=O)(=O)N2CCc3ccccc32)c1 | active: 10.4 µM |
| Cn1cc(SCC(=O)NC2CCCC2)c2ccccc21 | inconclusive [inhibitor, single point] |
| CCOC(=O)c1c(C)nc2c(c1-c1ccc(OC)c(OC)c1)C(=O)c1ccccc1-2 | inconclusive [inhibitor, full curve, poor fit] |
| Cc1ccc(C)c(-n2c(N)c(C(N)=O)sc2=S)c1 | inactive |
| COc1ccc(C(=O)N2CCc3cc(OC)c(OC)cc3C2c2ccc(OC)c(OC)c2)cc1 (stereo not drawn) | inconclusive [inhibitor, partial curve] |
| O=C(O)COc1ccc(/C=N/NC(=O)c2ccc(-c3csc(Nc4ccc(Cl)cc4)n3)cc2)cc1 | inconclusive [inhibitor, partial curve, poor fit] |
| CS(=O)(=O)N1CCCC(c2nc(-c3ccc(S(=O)(=O)NCc4ccccc4)cc3)no2)C1 (stereo not drawn) | inconclusive [inhibitor, single point] |
| CCOC(=O)C1CCCN(C(=O)c2ccc3[nH]c4c(c3c2)CC(C)CC4)C1 (stereo not drawn) | active: 9.28 µM |
| O=C(COC(=O)c1cc(-c2ccncc2)nc2ccccc12)Nc1ccc2c(c1)OCO2 | inactive |
| Cc1ccc(-n2c(CNc3ccc(F)cc3)nnc2SCC(=O)NCc2ccco2)cc1 | inconclusive [inhibitor, single point] |
| O=C(c1ccc(Cl)cc1)N1CCC(O)(CSc2ccc(Cl)cc2Cl)CC1 | inconclusive [inhibitor, partial curve] |
| COC(=O)c1ccc(NC(=S)NC(=O)c2cc(-c3ccccc3)nc3ccccc23)cc1 | inactive |
| O=C(COC(=O)c1ncc(Cl)c(Cl)c1Cl)NC1CCS(=O)(=O)C1 (stereo not drawn) | inconclusive [inhibitor, partial curve, poor fit] |

Source: PubChem BioAssay AID504832 (National Center for Advancing Translational Sciences (NCATS), 2011)
